# According to publication PMC4336329 (PLoS ONE, 2015):
# Screen size: about 310,000 compounds; about 2,200 (0.71%) showed an effect of 50% or more. The effect is printed as a negative number. The list shows a part of the results.
# Target: human ether-à-go-go-related gene (hERG) potassium channel (human, UniProt Q12809)
# Experiment: primary screen, population patch clamp on CHO cells stably expressing hERG
# Chain of human ether-à-go-go-related gene (hERG) potassium channel (Q12809 whole entry, looked up): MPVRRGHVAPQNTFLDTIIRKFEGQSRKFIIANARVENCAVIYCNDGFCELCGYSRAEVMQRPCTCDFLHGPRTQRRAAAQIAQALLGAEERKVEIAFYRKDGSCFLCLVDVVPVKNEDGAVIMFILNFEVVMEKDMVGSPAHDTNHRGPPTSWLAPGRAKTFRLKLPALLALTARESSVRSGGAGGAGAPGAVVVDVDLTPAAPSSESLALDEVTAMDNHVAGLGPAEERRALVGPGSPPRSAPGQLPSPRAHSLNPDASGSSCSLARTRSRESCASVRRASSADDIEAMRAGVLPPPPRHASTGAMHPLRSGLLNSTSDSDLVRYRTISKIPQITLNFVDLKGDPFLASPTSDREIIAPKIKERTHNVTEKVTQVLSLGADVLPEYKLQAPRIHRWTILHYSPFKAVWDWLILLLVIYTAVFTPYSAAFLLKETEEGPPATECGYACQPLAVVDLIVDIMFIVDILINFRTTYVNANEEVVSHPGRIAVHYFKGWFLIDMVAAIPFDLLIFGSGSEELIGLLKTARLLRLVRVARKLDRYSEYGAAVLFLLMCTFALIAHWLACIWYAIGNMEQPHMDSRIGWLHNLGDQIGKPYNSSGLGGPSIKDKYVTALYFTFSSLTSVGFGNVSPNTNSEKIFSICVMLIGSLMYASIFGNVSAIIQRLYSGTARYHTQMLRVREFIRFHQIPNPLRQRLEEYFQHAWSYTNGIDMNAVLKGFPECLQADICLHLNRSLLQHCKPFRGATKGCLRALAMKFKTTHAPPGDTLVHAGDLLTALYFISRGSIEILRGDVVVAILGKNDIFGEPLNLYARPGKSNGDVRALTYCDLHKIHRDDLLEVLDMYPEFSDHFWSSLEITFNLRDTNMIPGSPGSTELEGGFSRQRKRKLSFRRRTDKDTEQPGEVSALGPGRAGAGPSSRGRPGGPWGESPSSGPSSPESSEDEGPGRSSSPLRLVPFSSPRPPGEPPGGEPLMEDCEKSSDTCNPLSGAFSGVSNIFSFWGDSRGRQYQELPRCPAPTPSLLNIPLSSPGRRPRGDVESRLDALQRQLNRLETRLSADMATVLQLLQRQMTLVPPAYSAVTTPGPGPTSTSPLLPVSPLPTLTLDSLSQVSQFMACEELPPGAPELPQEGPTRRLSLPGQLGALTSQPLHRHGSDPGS
row,Structure (SMILES),"hERG current change (%, negative = inhibition) at 1uM"
1,COc1ccc2c(c1)CC/C(=C\c1ccc(OC)c(Cn3cccn3)c1)C2=O,7.57%
2,Cn1cccc1C(=O)OCC(=O)Nc1ccc2c(c1)OCO2,12.3%
3,COc1ccc(C(CNC(=O)c2ccc(Cl)c(NC(=O)c3cccs3)c2)N2CCCC2)cc1 (stereo not drawn),-38.5%
4,COc1ccc(NS(=O)(=O)c2ccc(NS(C)(=O)=O)cc2)cc1,6.82%
5,Clc1ccc(C2CC(c3cccs3)n3ncnc3N2)cc1 (stereo not drawn),3.49%
6,COc1cc(/C=C2\C(=O)N(c3ccc(S(N)(=O)=O)cc3)N=C2C)ccc1OC(=O)c1ccco1,9.27%
7,Cc1ccc(NC(=O)COC(=O)COc2cccc3c2OC(C)(C)C3)cc1C,11.1%
8,CCOC(=O)C1CCCN(S(=O)(=O)c2ccc3c(c2)CC(C)N3C(=O)C2CC2)C1 (stereo not drawn),12%
9,O=C(Cc1ccccc1F)Nc1ccc(SC(F)F)cc1,11.7%
10,Cc1nc(-c2ccc(F)cc2)c(CC(=O)N(C)CC(=O)Nc2ccccc2C(F)(F)F)s1,6.37%
11,CCC(C)NC(=O)c1cc2c(=O)[nH]c3ccc(C)cc3c2s1 (stereo not drawn),13.9%
12,N/C(=N\c1nc2ccccc2o1)NC(=O)c1ccccc1Br,14.3%
13,COC(=O)c1cc(NC(=O)c2cccnc2)cc(C(=O)OC)c1,11.2%
14,O=C(NNC(=O)c1cccc2ccccc12)c1ccc2c(c1)OCO2,14.4%
15,Cc1nc(-c2cccc3ccccc23)ccc1C(=O)O,10.5%
16,CCCCCCCCCCCCN1[C@@H](CC(=O)OC)c2cc(F)cc(F)c2S1(=O)=O,14.4%
17,O=C(C1CC(=O)N(c2ccccc2)C1)N1CCN(c2ccccc2)CC1 (stereo not drawn),-15.9%
18,COc1ccc(C2=NO[C@@H]3[C@@H]4C[C@@H]([C@H]5C(=O)N(C)C(=O)[C@@H]45)[C@H]23)c(OC)c1,13.4%
19,CC(=O)N1CCc2cc(S(=O)(=O)NCCC3=CCCCC3)ccc21,12.8%
20,O=C(C1CCCN(Cc2ccccc2F)C1)N1CCCC1.O=C(O)C(=O)O (stereo not drawn),9.87%
21,S=C(NCc1ccco1)Nc1ccc(N2CCOCC2)cc1,11.9%
22,CCOC(=O)c1cnc2ccc(C(=O)OC)cc2c1Nc1ccc2c(c1)OCCO2,10.5%
23,COc1ccc(-c2c[nH]c(=O)[nH]c2=O)cc1OC,10.6%
24,CC(C)(C)c1ccc(O)c(O)c1,14.1%
